Experimental data taken from the supplement of paper PMC3334620.
The full ranking holds about 33,000 sequences; the median of “E-score (-0.5 to 0.5)” is about -0.01, and the highest 2% start at about 0.26. The list shows a part of the results.

Each sequence was assayed against Ste12 (UniProt P13574) (assay: PBM E-score (8-mer binding enrichment) (E-score (-0.5 to 0.5)); higher = stronger / more preferred TF binding; most listed sequences are background and not binding sites). Conditions: protein concentration: 200 nM; construct: GST-DNA-binding domain.
Summary of the method: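 Universal all-10-mer Agilent arrays, double-stranded by primer extension on fresh or once-stripped slides, were probed with about 100-200 nM GST-tagged yeast transcription factors made by PURExpress. Fluorescent anti-GST detected bound protein, and masliner normalised the scans. E-scores from the Universal PBM Analysis Suite were given to each ungapped eight-base word pooled with its reverse complement.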

Sequence | PBM E-score
ACACCACC | -0.046
CGATTAGA | -0.074
GGTACCTA | -0.213
AGACTAGG | -0.136
ATCTTAGG | 0.007
AACCTCGT | -0.0276
ATCAGATA | 0.0702
CGGATAGA | 0.144
CCCACAGA | -0.0144
GTGGTGGA | -0.00239
GACTAAAC | 0.00709
TCTATACA | -0.0534
CAAGCGTG | -0.128
AATCCGAC | -0.0163
CGTACTAA | -0.0054
AGTGGGCG | -0.105
GAAAGATA | 0.148
GGTGGCCA | -0.111
CGCTCCGA | 0.127
ACAATGGA | 0.107
ACGCTTCC | -0.107
CGACTGAA | 0.148
CTGTACTC | -0.247
ACCCCCCA | -0.218
GCTCATAA | 0.0263

Sequence | PBM E-score
ATCAGGTC | -0.0413
AATAATCG | 0.145
AGTGTCCC | -0.0708
GATGGGTA | -0.0514
AAAGTGGC | -0.0173
AAACATGA | 0.321
TCTCTTAA | 0.0542
ACCGGTAG | -0.093
ACGGATAC | 0.0745
CTTTGACA | -0.0728
CACCAGCC | -0.164
CTTCGCAA | 0.0529
GGGCCATA | -0.0166
TATAGCGA | -0.00451
CACAAGTC | -0.138
GGCCTGGA | -0.15
ATGATAAT | 0.13
ATGCTCGA | -0.0368
CCGTCCCA | 0.0602
AGATAACC | -0.0669
ACTACCAA | -0.114
ACCGCGGA | 0.0698
GCCCAGCA | -0.09
AGTGAGAG | -0.175
CAGAGACG | 0.0192

Sequence | PBM E-score
GAAAGAAC | -0.00643
ACGGGGAC | 0.0352
CGTTGACA | -0.263
AGCTTTAC | -0.1
AGGAAGAA | -0.0282
CTTGGCCA | -0.176
ACGTTTGA | 0.178
CTTGGCAC | -0.0141
GCCAGAAC | 0.0381
CGGGTAGC | -0.113
ATATAGCC | 0.235
AGCTCGAC | -0.00751
CCCAGGCC | -0.109
ATTACCTA | -0.00035
AGTTATAG | 0.0603
ATCTTCCA | -0.0869
GCGACTAA | -0.0174
CGGTTGTC | 0.00291
ATATCTAC | 0.0901
GCCTGTAA | -0.0964
ACGTGGTG | -0.109
TGTTTGAA | 0.378
AGAATTCG | 0.051
GGGGGTCA | -0.311
CGGGTGCC | -0.12

Sequence | PBM E-score
AGTTTTAC | 0.143
CTTGACCA | -0.0197
CGCGTTGC | -0.0856
ATGGCACC | -0.0968
AAGTAGCG | -0.209
CGGTCAAG | -0.174
ACGCATCA | 0.0363
CAGTTGAA | 0.0474
ACTGTAAC | 0.219
GGCCCCGA | -0.173
GAACCAGA | -0.128
AGATAGAG | 0.03
CAAGTTCC | -0.13
AAAAGGGA | 0.0721
AAACACTA | 0.273
GTATACCA | 0.0156
GTTCCGTA | -0.0307
ACTAGAAG | -0.143
AGGATGCG | -0.101
AAAAAGAT | 0.271
AGGAAGTA | 0.0853
CTCCCCGC | 0.386
AACATGCG | 0.211
CCTAACGA | 0.0541
CGGCTAAA | 0.17

Sequence | PBM E-score
GACGCGTC | -0.165
ACCGGAGA | -0.00556
GCCCTCAA | -0.23
CTGTCGTA | -0.0251
CGATATAC | -0.00426
GGTCCCTA | -0.0245
AACCCGAG | -0.0631
CTCGCCGC | -0.11
CGTAGAGA | -0.103
GGAAGCCC | -0.205
CTCTAGCC | -0.203
ATCCAGGC | -0.127
CGCGTTGA | -0.103
CCGAAGAC | 0.0421
GTCTAAGA | -0.0187
GTAGGTTA | 0.167
GCATCGGC | -0.0816
GGCGGAGA | -0.0569
CAATTCGC | 0.0903
CTGGGTTC | -0.153
AGGAGACA | -0.0405
GTAAGAGA | 0.0682
ACCTTTAT | -0.135
GCGTACCC | -0.129
CTTCTCAA | 0.102

Sequence | PBM E-score
ACGTGCTA | -0.111
CACTGCGA | 0.0261
ATCCACGC | -0.18
GTAATGAC | -0.0454
GTTTTACA | 0.296
CTCTATTC | -0.136
GAACCTTA | 0.16
AGGACCCG | -0.042
ATTTCGTG | 0.0355
AGTAATGG | 0.0346
ATGGTTGG | 0.00556
GGGGAGGA | 0.141
AAAACCGT | 0.106
AGCTTCCT | -0.0998
AATCGGAA | 0.155
CTTGTAAA | 0.121
GCAGGGAA | 0.153
CTTCTACA | 0.0721
CGCCAACA | -0.0261
AAGTGCTC | -0.208
CTCAGTGA | -0.0146
GCTGTAGA | -0.0176
ACAATTCT | 0.0706
ACCACCAA | 0.00269
ATGTGAAA | 0.202

Sequence | PBM E-score
GAGTATCA | -0.00514
TCGCATCA | 0.149
CAGTAGTA | -0.0437
ATGATCAG | 0.0759
GGGATCTA | -0.115
GGGTTCAC | -0.0147
ATGCTGTA | 0.0544
GAGTATCC | -0.127
CATAGACC | 0.0275
ATTTGTAA | 0.288
CAGCCCTA | 0.119
AATATATA | 0.22
CTAACAGC | 0.0148
TCGTCCCA | 0.0202
ATAGCCGA | 0.0627
AACGCAGT | -0.196
GGCTCCAC | -0.124
GCGAGGAA | 0.00814
GCTCGAAC | -0.0502
AGTCAAGG | -0.139
ACACTTAC | 0.13
TATGTTGA | 0.153
CCAGGACA | -0.0867
GACGTCCA | 0.0078
GATGGTCC | -0.173

Sequence | PBM E-score
ACGCAATA | 0.116
AACGCCCG | 0.0188
CATGAAGC | 0.00731
ACGTTCTG | 0.108
ACATTGCA | 0.164
CCCCGAGG | -0.0728
CGGTTAGA | -0.0703
GGGCCGAA | -0.0272
AAACTTGT | 0.248
CGATCTCA | 0.0448
ATCCGCAT | -0.0405
CTAGAACC | -0.0989
AAGCAACA | -0.0738
CAGGGTGC | -0.133
CCGTCCGC | -0.102
GATGAGAA | -0.1
ATAAAGCG | 0.162
AGTTCGCG | -0.00649
CGTACGTC | -0.182
GTACCATA | 0.0067
AGAGGTTG | -0.036
AAATAGAC | -0.0352
GTCCAAAC | 0.0248
ACTCACAC | -0.0757
AACAGAGG | 0.0174

Sequence | PBM E-score
CGCCGAGA | -0.0805
CCCGCCAC | 0.213
AAAGGGCG | 0.069
TACGCCAA | 0.0395
CTTCGTCA | 0.0182
CGATACAC | 0.0976
ACACTGAC | -0.06
ATAAATCC | 2e-05
AACAAAGT | 0.187
CCCGATTC | 0.0925
ATTTGAAC | 0.123
AATTTTCT | 0.114
AACAGTCT | -0.249
GATCTAAC | 0.126
AGTACTCC | -0.23
CGTCAGCA | -0.151
ACACGGGC | -0.142
AATATATG | 0.143
ATCATTAA | 0.298
TGAGAGCA | -0.0133
ACAGCGAA | 0.0637
TGCCCCCA | -0.216
CCAGTTGC | -0.119
AACGAACC | 0.0385
TACAGTCA | 0.0395

Sequence | PBM E-score
CCCCTCCG | 0.171
AACCAATA | 0.195
AAGTGTTG | 0.118
CCCCGGTC | -0.127
ACGAAGAC | -0.102
CGCTCTGA | 0.0576
GATCCATC | -0.124
CATTGGGA | -0.0909
AATCAATA | 0.131
ACCGTTCG | -0.118
CATCAGCA | 0.123
CGTGGCTA | -0.199
ATGTTCGC | -0.114
AAAGCGGT | 0.0779
AGGTCCAC | -0.235
GATCTCTA | -0.105
CCTTCGAC | -0.0226
ACTTAACG | -0.119
CACGCTGC | -0.176
CAAGAGGC | -0.159
CCTGATAC | 0.226
GAGCGGCC | -0.157
ACAAGCGA | 0.0432
AAAATAGT | 0.0608
ATCTCGTC | -0.0888

Sequence | PBM E-score
CCACTGCG | -0.0201
AGCCCAAG | -0.131
CAGTGTTC | 0.00667
AAATCTGT | 0.167
AAATCTAC | 0.151
GCTGCCTA | -0.0571
ACGGGTGC | -0.14
CGGTAGTA | -0.144
CCAGTCTA | -0.246
GCTTGTGA | -0.0847
CAATTATA | 0.139
CGCCTTTA | -0.0312
ACACCTAG | -0.129
CGGCACGA | -0.0366
GCGTGCTA | -0.297
ATAGATGG | -0.116
CTGCTCTA | -0.0821
CATGTTCC | -0.0468
CACCTATG | -0.0896
ACCTGTCA | 0.0912
GGGAACGA | -0.0559
AGTCTTCG | -0.111
AATCGGAT | 0.13
CCAGTCGA | 0.042
ACGGTTGA | 0.0194

Sequence | PBM E-score
AGTACCCG | 0.0288
AAAATTCA | 0.212
CAAAGGTC | -0.187
GATCTACA | -0.101
ACAGACCT | 0.079
ATCGAGCG | 0.0436
ACCCTGGA | 0.0722
AGGGCAGA | -0.0685
TCTACCAA | -0.128
GGTTGTTA | 0.253
CGAACCAG | -0.102
AATGCAAT | -0.183
CCCTGTCA | -0.0927
GACTGGAA | -0.0552
AGTAAGAT | 0.0911
AACTCTCA | 0.00857
CTCCTGGC | -0.0305
AAATAGTG | 0.152
CCCACAAA | 0.205
CTTACGGA | -0.176
CGGAGAAG | -0.00086
GGGTTGGA | -0.00521
CATCAAAC | 0.168
CAGTGGGA | -0.0936
AAAGTAAC | 0.181

Sequence | PBM E-score
ACCTCTAG | -0.0158
AGTGAATA | -0.0899
GGCGCAAC | 0.0024
AGTAATAC | 0.00891
CGGCTGGA | -0.0994
ACGCCCAA | 0.0871
ACAAAGTA | 0.0483
AGTACATC | -0.0599
AACACACC | 0.143
ATATTGCC | 0.0991
AGGCGCCC | -0.194
CGACAGTA | -0.0694
ATAGACCA | -0.0601
TCCCCAGA | -0.179
ATCACCGA | 0.0751
GCGAGTAA | 0.0934
TAAGTATA | 0.0848
GGCACCAC | -0.0345
AATTCCCT | 0.0616
CATTGCGC | -0.1
CAAGCTCC | -0.106
AACTGTGC | -0.158
CCCACGGG | -0.119
ACCAGTGC | -0.233
AAGTGAGT | -0.0575

Sequence | PBM E-score
CGGTAAGA | -0.177
GTGCACTA | 0.0979
AAGGAAGG | -0.228
GCTGTCAA | -0.159
TCAGAACA | 0.0564
CACTAGTC | -0.137
CCTACATA | 0.112
GGGTCTGA | 0.0492
AGTCGAAA | 0.00195
AGGTTCTG | -0.159
GTGGCATA | 0.078
ACTTCTAA | 0.0133
GCCCGTCC | -0.087
TACTTGCA | 0.0715
ACGGTACG | -0.135
TGCCAGAA | 0.117
GAGAAGAA | 0.0157
ACTGAGAG | 0.0683
AGCGATTG | -0.133
